Source: the supplement of paper PMC4967469

What was measured:
Experiment in all cases: Viability of human cancer cell lines after 72 h of drug (GDSC screen)
JW-7-52-1 = compound: CCC(=O)N1CCN(c2ccc(-n3c(=O)ccc4cnc5ccc(-c6cnc7ccccc7c6)cc5c43)cc2C(F)(F)F)CC1 [JW-7-52-1]; conditions: top dose 1.2 µM; top dose inferred
Description: (§1)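 Human cancer cell lines in 384-well plates, medium with 10% serum, drug for 72 h over a 256-fold dose range (nine 2-fold or five 4-fold steps up to the top dose). Adherent lines were fixed and stained with the nucleic acid dye Syto60, suspension lines read with resazurin; signal relative to control wells, capped at 0 and 100%. One two-parameter sigmoid per drug and line, fitted in a mixed model over all curves with the slope shared within a line.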

XL-880 = compound: COc1cc2c(Oc3ccc(NC(=O)C4(C(=O)Nc5ccc(F)cc5)CC4)cc3F)ccnc2cc1OCCCN1CCOCC1 [XL-880]; conditions: top dose 5.12 µM; top dose inferred
Description: as §1

Rapamycin = compound: CO[C@H]1C[C@@H]2CC[C@@H](C)[C@@](O)(O2)C(=O)C(=O)N2CCCC[C@H]2C(=O)O[C@H]([C@H](C)C[C@@H]2CC[C@@H](O)[C@H](OC)C2)CC(=O)[C@H](C)/C=C(\C)[C@@H](O)[C@@H](OC)C(=O)[C@H](C)C[C@H](C)/C=C/C=C/C=C/1C [Rapamycin]; conditions: top dose 0.1 µM; top dose inferred
Description: as §1

IPA-3 = compound: Oc1ccc2ccccc2c1SSc1c(O)ccc2ccccc12 [IPA-3]; conditions: top dose 32 µM; top dose inferred
Description: as §1

Z-LLNle-CHO = compound: CCCC[C@@H](C=O)NC(=O)[C@H](CC(C)C)NC(=O)[C@H](CC(C)C)NC(=O)OCc1ccccc1 [Z-LLNle-CHO]; conditions: top dose 2.56 µM; top dose inferred
Description: as §1

Tubastatin A = compound: CN1CCc2c(c3ccccc3n2Cc2ccc(C(=O)NO)cc2)C1 [Tubastatin A]; conditions: top dose 20 µM
Description: as §1

CI-1040 = compound: O=C(NOCC1CC1)c1ccc(F)c(F)c1Nc1ccc(I)cc1Cl [CI-1040]; conditions: top dose 10 µM; top dose inferred
Description: as §1

Temozolomide = compound: Cn1nnc2c(C(N)=O)ncn2c1=O [Temozolomide]; conditions: top dose 30 µM
Description: as §1

Cell Line | AUC (JW-7-52-1) | IC50 (JW-7-52-1) [nM] | AUC (XL-880) | IC50 (XL-880) [nM] | AUC (Rapamycin) | IC50 (Rapamycin) [nM] | AUC (IPA-3) | IC50 (IPA-3) [nM] | AUC (Z-LLNle-CHO) | IC50 (Z-LLNle-CHO) [nM] | AUC (Tubastatin A) | IC50 (Tubastatin A) [nM] | AUC (CI-1040) | IC50 (CI-1040) [nM] | AUC (Temozolomide) | IC50 (Temozolomide) [nM]
TALL-1 (T-cell lymphoblastic leukaemia, suspension) | 0.673 | 222 | 0.799 | 2320 | 0.965 | > 100 | 0.91 | > 32000 | 0.781 | 1010 | 0.984 | > 20000 | – | – | – | –
MHH-NB-11 (neuroblastoma, adherent) | 0.92 | > 1200 | 0.631 | 765 | 0.985 | > 100 | 0.984 | > 32000 | 0.9 | > 2560 | 0.853 | 18000 | 0.754 | 3670 | – | –
GCIY (stomach, adherent) | 0.239 | 11.8 | 0.822 | 3500 | 0.716 | 27.9 | 0.885 | > 32000 | 0.8 | 1420 | 0.969 | > 20000 | 0.857 | 9860 | – | –
TE-441-T (rhabdomyosarcoma, adherent) | 0.827 | 697 | 0.76 | 1740 | 0.953 | > 100 | 0.775 | 12100 | 0.954 | > 2560 | – | – | – | – | – | –
OMC-1 (cervix, adherent) | 0.511 | 80.3 | 0.756 | 1830 | 0.925 | > 100 | 0.903 | > 32000 | 0.869 | 2560 | 0.983 | > 20000 | – | – | 0.987 | > 30000
NCI-H748 (small cell lung carcinoma, suspension) | 0.602 | 155 | 0.827 | 4350 | 0.915 | > 100 | 0.929 | > 32000 | 0.804 | 1730 | 0.914 | > 20000 | – | – | – | –
HCC1599 (breast, suspension) | 0.454 | 55.1 | 0.696 | 1240 | 0.734 | 32.5 | 0.912 | > 32000 | 0.665 | 494 | 0.872 | > 20000 | – | – | – | –
NK-92MI (lymphoid neoplasm, suspension) | 0.7 | 262 | – | – | 0.877 | 88.1 | 0.652 | 5090 | 0.727 | 668 | – | – | – | – | – | –
KG-1 (acute myeloid leukaemia, suspension) | 0.762 | 385 | 0.444 | 230 | 0.943 | > 100 | 0.852 | 20700 | 0.944 | > 2560 | 0.916 | > 20000 | – | – | 0.988 | > 30000
NCI-H2171 (small cell lung carcinoma, suspension) | 0.965 | > 1200 | 0.559 | 454 | 0.958 | > 100 | 0.954 | > 32000 | 0.9 | 2520 | 0.979 | > 20000 | – | – | – | –

Lines with a small IC50 respond at low doses; fits outside the tested doses are given as limits. The AUC spans the tested range (256-fold, ending at the top dose) of the same fit; it is 1 without any effect and falls as sensitivity rises. For some assays here: Where the top dose is marked as inferred, it was derived from the fitted curves, not read from the paper.
